Data: the supplement of paper PMC4967469

Columns and labels:
Test in all cases: Viability of human cancer cell lines after 72 h of drug (GDSC screen)
STF-62247 = compound: Cc1cccc(Nc2nc(-c3ccncc3)cs2)c1 [STF-62247]; settings: top dose 10.24 µM; top dose inferred
Method: (§1)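 Human cancer cell lines in 384-well plates, medium with 10% serum, drug for 72 h over a 256-fold dose range (nine 2-fold or five 4-fold steps up to the top dose). Adherent lines were fixed and stained with the nucleic acid dye Syto60, suspension lines read with resazurin; signal relative to control wells, capped at 0 and 100%. One two-parameter sigmoid per drug and line, fitted in a mixed model over all curves with the slope shared within a line.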

CP724714 = compound: COCC(=O)NC/C=C/c1ccc2ncnc(Nc3ccc(Oc4ccc(C)nc4)c(C)c3)c2c1 [CP724714]; settings: top dose 10.24 µM; top dose inferred
Method: as §1

Paclitaxel = compound: CC(=O)O[C@H]1C(=O)[C@@]2(C)[C@H]([C@H](OC(=O)c3ccccc3)[C@]3(O)C[C@H](OC(=O)[C@H](O)[C@@H](NC(=O)c4ccccc4)c4ccccc4)C(C)=C1C3(C)C)[C@]1(OC(C)=O)CO[C@@H]1C[C@@H]2O [Paclitaxel]; settings: top dose 0.1024 µM
Method: as §1

CX-5461 = compound: Cc1cnc(CNC(=O)c2c(=O)c3ccc(N4CCCN(C)CC4)nc3n3c2sc2ccccc23)cn1 [CX-5461]; settings: top dose 10.24 µM; top dose inferred
Method: as §1

Bortezomib = compound: CC(C)C[C@H](NC(=O)[C@H](Cc1ccccc1)NC(=O)c1cnccn1)B(O)O [Bortezomib]; settings: top dose 0.02 µM
Method: as §1

Obatoclax mesylate = compound: COC1=CC(c2cc3ccccc3[nH]2)=N/C1=C\c1[nH]c(C)cc1C [Obatoclax mesylate]; settings: top dose 16 µM
Method: as §1

Cell Line	AUC (STF-62247)	IC50 (STF-62247) [nM]	AUC (CP724714)	IC50 (CP724714) [nM]	AUC (Paclitaxel)	IC50 (Paclitaxel) [nM]	AUC (CX-5461)	IC50 (CX-5461) [nM]	AUC (Bortezomib)	IC50 (Bortezomib) [nM]	AUC (Obatoclax mesylate)	IC50 (Obatoclax mesylate) [nM]
8-MG-BA (glioma, adherent)	0.933	> 10200	0.967	> 10200	0.476	5.54	0.887	10200	0.281	0.314	0.166	105
697 (lymphoblastic leukaemia, suspension)	0.926	> 10200	0.978	> 10200	0.315	2.2	0.198	105	0.54	1.57	0.053	< 62.5
A3-KAW (B-cell lymphoma, suspension)	0.943	> 10200	0.941	> 10200	0.89	76.4	0.701	2040	0.513	1.34	0.144	112
A4-Fuk (B-cell lymphoma, suspension)	0.986	> 10200	0.983	> 10200	0.435	4.21	0.622	1410	0.466	1.01	0.216	141
A101D (melanoma, adherent)	0.981	> 10200	0.981	> 10200	0.568	10.2	0.981	> 10200	0.24	0.181	0.091	< 62.5
A253 (head and neck, adherent)	0.988	> 10200	0.98	> 10200	0.663	17.9	0.976	> 10200	0.446	0.895	0.376	459
A388 (skin, adherent)	0.983	> 10200	0.973	> 10200	0.526	7.63	0.871	> 10200	0.33	0.389	0.124	< 62.5
ALL-PO (lymphoblastic leukaemia, suspension)	0.908	> 10200	0.945	> 10200	0.521	7.35	0.644	1640	0.623	2.79	0.265	204
ALL-SIL (T-cell leukaemia, suspension)	0.944	> 10200	0.985	> 10200	0.446	4.66	0.733	2620	0.401	0.697	0.102	66.1
AMO-1 (haematopoietic neoplasm, suspension)	0.902	10000	0.971	> 10200	0.532	7.71	0.939	> 10200	0.341	0.487	0.317	334
ARH-77 (myeloma, suspension)	0.966	> 10200	0.973	> 10200	0.73	28.1	0.865	8460	0.576	2	0.243	188
ATN-1 (T-cell lymphoblastic leukaemia, suspension)	0.793	4350	0.978	> 10200	0.485	5.83	0.899	> 10200	0.645	3.07	0.272	237
BB30-HNC (head and neck, adherent)	0.978	> 10200	0.954	> 10200	0.385	3.11	0.699	2290	0.404	0.688	0.064	< 62.5
BB49-HNC (head and neck, adherent)	0.972	> 10200	0.974	> 10200	0.969	> 102	0.977	> 10200	0.431	0.752	0.586	1890
BB65-RCC (kidney, adherent)	0.973	> 10200	0.981	> 10200	0.707	27.1	0.968	> 10200	0.329	0.385	0.252	172
BC-3 (B-cell lymphoma, suspension)	0.832	5590	0.959	> 10200	0.632	14.1	0.974	> 10200	0.621	2.58	0.548	1330
BE2-M17 (neuroblastoma, adherent)	0.967	> 10200	0.948	> 10200	0.903	> 102	0.987	> 10200	0.782	8.62	0.57	1560
BE-13 (lymphoblastic leukaemia, suspension)	0.705	2320	0.972	> 10200	0.512	6.9	0.755	3270	0.597	2.27	0.21	150
BL-41 (Burkitt lymphoma, suspension)	0.938	> 10200	0.868	5860	0.433	4.39	0.713	2150	0.484	1.14	0.069	< 62.5
BV-173 (chronic myeloid leukaemia, suspension)	0.985	> 10200	0.981	> 10200	0.555	8.87	0.211	103	0.755	6.08	0.195	144
Becker (glioma, adherent)	0.975	> 10200	0.975	> 10200	0.553	9.11	0.978	> 10200	0.575	2.06	0.566	1550
C2BBe1 (large intestine, adherent)	0.978	> 10200	0.979	> 10200	0.895	> 102	0.896	> 10200	0.592	2.31	0.517	1120
CA46 (Burkitt lymphoma, suspension)	0.975	> 10200	0.964	> 10200	0.906	> 102	0.55	886	0.925	> 20	0.176	95.8

Cell Line	AUC (STF-62247)	IC50 (STF-62247) [nM]	AUC (CP724714)	IC50 (CP724714) [nM]	AUC (Paclitaxel)	IC50 (Paclitaxel) [nM]	AUC (CX-5461)	IC50 (CX-5461) [nM]	AUC (Bortezomib)	IC50 (Bortezomib) [nM]	AUC (Obatoclax mesylate)	IC50 (Obatoclax mesylate) [nM]
CAS-1 (glioma, adherent)	0.976	> 10200	0.949	> 10200	0.862	> 102	0.982	> 10200	0.545	1.73	0.509	1070
CESS (acute myeloid leukaemia, suspension)	0.969	> 10200	0.967	> 10200	0.567	9.47	0.22	114	0.369	0.577	0.153	107
CGTH-W-1 (thyroid, adherent)	0.984	> 10200	0.97	> 10200	0.801	49.5	0.982	> 10200	0.666	3.6	0.373	447
CHP-126 (neuroblastoma, suspension)	0.943	> 10200	0.978	> 10200	0.956	> 102	0.435	424	0.737	6.09	0.528	1190
CL-11 (large intestine, adherent)	0.987	> 10200	0.978	> 10200	0.979	> 102	0.984	> 10200	0.705	5.12	0.804	9250
CMK (acute myeloid leukaemia, suspension)	0.91	> 10200	0.981	> 10200	0.762	31.5	0.386	327	0.503	1.27	0.094	62.8
D-247MG (glioma, adherent)	0.763	5050	0.831	10100	0.806	76.5	0.974	> 10200	0.365	0.462	–	–
D-336MG (glioma, adherent)	0.942	> 10200	0.97	> 10200	0.85	> 102	0.853	> 10200	0.389	0.568	–	–
EHEB (lymphoid neoplasm, suspension)	–	–	–	–	0.885	> 102	–	–	0.581	2.31	0.523	1180
GA-10 (Burkitt lymphoma, suspension)	–	–	–	–	0.344	2.55	–	–	0.469	1.04	–	–
IM-9 (myeloma, suspension)	–	–	–	–	0.992	> 102	–	–	0.87	14.5	0.297	296
KARPAS-231 (B-cell leukaemia, suspension)	–	–	0.975	> 10200	0.498	6.33	–	–	0.448	0.931	0.116	95.1
LB647-SCLC (small cell lung carcinoma, semi-adherent)	0.856	9850	–	–	0.621	14.4	0.846	8830	0.651	3.47	–	–
NB17 (neuroblastoma, adherent)	0.82	7060	0.92	> 10200	0.774	46.2	0.224	86.8	0.565	1.93	–	–
NCI-H128 (small cell lung carcinoma, suspension)	–	–	–	–	0.971	> 102	–	–	0.884	> 20	–	–
NCI-H1963 (small cell lung carcinoma, suspension)	0.977	> 10200	–	–	0.709	22.8	0.847	6110	0.636	2.81	0.492	956
NK-92MI (lymphoid neoplasm, suspension)	–	–	–	–	0.969	> 102	–	–	0.419	0.762	0.108	< 62.5
P31-FUJ (acute myeloid leukaemia, suspension)	0.957	> 10200	0.989	> 10200	0.996	> 102	0.99	> 10200	0.993	> 20	–	–
RL95-2 (endometrium, adherent)	0.978	> 10200	0.981	> 10200	0.379	2.99	0.856	8100	0.662	3.5	–	–
SKM-1 (haematopoietic neoplasm, suspension)	–	–	–	–	0.983	> 102	–	–	0.929	> 20	–	–
TALL-1 (T-cell lymphoblastic leukaemia, suspension)	0.965	> 10200	0.981	> 10200	0.809	–	0.967	> 10200	0.915	> 20	–	–
TE-441-T (rhabdomyosarcoma, adherent)	–	–	0.986	> 10200	0.94	> 102	–	–	0.924	> 20	0.567	1510
TUR (B-cell lymphoma, suspension)	0.888	9990	0.949	> 10200	0.988	> 102	0.89	> 10200	0.93	> 20	–	–

By IC50 is meant the dose at which the fit gives 50% viability; fits outside the tested doses are given as limits. The AUC spans the tested range (256-fold, ending at the top dose) of the same fit: 1 means no effect, lower means more sensitive. For some of these results: Where the top dose is marked as inferred, it was derived from the fitted curves, not read from the paper.
